Results published in PubChem BioAssay AID463173 (ICCB-Longwood Screening Facility, Harvard Medical School, 2010).
Among all 52,000 compounds or so, about 1,700 (3.3%) were called active. Rule as the data show it: active = survival mostly below about 52% (no sharp cut-off); inactive = mostly above about 56%. Some of the results follow.

Each compound was assayed on Wild type (assay: S. aureus survival, RN4220 and DeltatarO strains – OD600, teichoic acid synthesis inhibitors, primary screen (AID 463173)). Conditions: S. aureus RN4220 wild type/DeltatarO growth, OD600, 18 h, hits give low values, screened at 18.75 µg/mL (by protocol).
For O=c1c(S(=O)(=O)c2ccccc2)cn(Cc2cccc(F)c2)c2cc(N3CCOCC3)c(F)cc12, the survival was inactive: 85%.
With COc1ccc(OC(=O)c2nc(SCc3ccc(F)cc3)ncc2Cl)cc1 the survival was inactive: 83%.
With CCOC(=O)c1ccc(NC(=O)c2c(NCc3cccs3)sc3c2CCCC3)cc1 the survival was inactive: 71%.
CCc1ccc(S(=O)(=O)c2cn(C)c3cc(N4CCC(C)CC4)c(F)cc3c2=O)cc1 was tested, and the survival was inactive: 80%.
For Cn1c(=O)n(C)c2cc(N3CCOCC3)c(NC(=O)c3ccccc3Br)cc21, the survival was inactive: 81%.
Cc1ccc(C(=O)Nc2nnc(S(=O)(=O)N3c4ccccc4CC3C)s2)cc1 (centres undefined) was tested, and the survival was inactive: 38%.
In the case of COc1ccc(NC(=O)c2ccco2)cc1NC(=O)COc1ccccc1, the survival is reported as inactive: 78%.
With COc1cccc(CNC(=O)c2cc(S(=O)(=O)N3CCCCC3)cn2C)c1 the survival was active: -2%.
CC(C)(C)NC(=O)Cn1c(SCC(=O)c2ccc3c(c2)OCCO3)nc2ccccc21 was tested, and the survival was inactive: 105%.
For COc1ccc(CNC(=O)CN2C(=O)CSc3ccc(S(=O)(=O)N4CCOCC4)cc32)c(OC)c1, the survival was inactive: 90%.
CC(=O)Nc1ccc(NC(=O)CSc2nc3ccccc3nc2N2CCC(C)CC2)cc1 was tested, and the survival was inactive: 80%.
N#Cc1c(NC(=O)C2CC(=O)NN2Cc2ccccc2)sc2c1CCCC2 (centres undefined) was tested, and the survival was inactive: 111%.
With CCOC(=O)CSc1nnc(CNc2cccc(C(F)(F)F)c2)n1CC the survival was inactive: 105%.
In the case of CCCCS(=O)(=O)/C=C\C1C2C=CC(C2)C1S(=O)(=O)CCCC (centres undefined), the survival is reported as inactive: 115%.
Cc1ccccc1Cn1c2ccccc2c2cnn(CC(=O)NCCc3ccccc3)c(=O)c21 was tested, and the survival was inactive: 130%.
With COc1ccc(NC(=O)C(Cc2ccccc2)n2cccc2)cc1OC (centres undefined) the survival was inactive: 82%.
In the case of COc1cc(-c2noc(CCC(=O)Nc3cc(C)ccc3C)n2)cc(OC)c1OC, the survival is reported as inactive: 82%.
For Cc1ccc(-n2ncc(C(=O)NCCc3c[nH]c4ccccc34)c2C2CCN(C(=O)OC(C)(C)C)CC2)cc1C, the survival was inactive: 142%.
In the case of COc1ccc(NC(=O)CCS(=O)(=O)c2ccc3nc(C)sc3c2)cc1Cl, the survival is reported as inactive: 81%.
In the case of CCn1c(=O)c2sccc2n2c(CCC(=O)N3CCN(c4ccc(C(C)=O)cc4)CC3)nnc12, the survival is reported as inactive: 61%.
Cc1ccccc1C(=O)N(Cc1nc(-c2ccc(Cl)cc2)no1)C(C)C was tested, and the survival was inactive: 86%.
For CNC(=O)c1c(NC(=O)/C=C/c2ccccc2Cl)sc2c1CCC2, the survival was inactive: 72%.
For Cc1ccc(OC(=O)CSc2nnc(-c3cccs3)o2)cc1, the survival was inactive: 82%.
For COc1ccc(C(=O)c2oc3ccccc3c2NC(=O)COc2cccc(C)c2C)cc1, the survival was inactive: 71%.
CCC(=O)Nc1ccc(CC)cc1-c1nc2ccccc2n(Cc2ccccc2)c1=O was tested, and the survival was inactive: 81%.
With O=C(Cn1c(-c2cccs2)cc2cc(Cl)ccc21)N1CCN(c2ccccc2F)CC1 the survival was inactive: 70%.
With CC(NC(=O)CN(c1ccc(Cl)cc1Cl)S(=O)(=O)c1ccccc1)c1ccccc1 (centres undefined) the survival was inactive: 66%.
For CC1CCC(NC(=O)c2cc3c(Cl)nc4ccccc4c3s2)CC1 (centres undefined), the survival was inactive: 83%.
For O=C(Cn1ccc2cc(S(=O)(=O)N3CCCCC3)ccc21)NCc1cccc(Cl)c1, the survival was inactive: 128%.
For O=C(c1cccc(F)c1)N1CCN(C(=O)c2cccc3ccccc23)CC1, the survival was inactive: 107%.
Cc1cc(C)c(NC(=O)Cn2nnc(-c3ccccc3)n2)c(C)c1 was tested, and the survival was inactive: 71%.
With Cc1cc(S(=O)(=O)NCC(c2ccco2)S(=O)(=O)c2ccccc2)ccc1F (centres undefined) the survival was inactive: 69%.
For CCOC(=O)C(C)NC(=O)C1CCN(c2ncnc3c2nc2n3CCCCC2)CC1 (centres undefined), the survival was inactive: 70%.
CC(=O)Nc1ccccc1-c1nc2ccccc2n(Cc2cccc(Br)c2)c1=O was tested, and the survival was inactive: 104%.
COc1ccc(F)cc1S(=O)(=O)Nc1cccc(-c2ccc(N3CCCCCC3)nn2)c1 was tested, and the survival was inactive: 92%.
With CCOc1ccccc1NC(=O)Cn1c(=O)n(Cc2ccccc2)c(=O)c2cccnc21 the survival was inactive: 118%.
For N#C/C=C1\n2c(nc3ccccc32)OC12CCCCC2, the survival was inactive: 108%.
With Cc1cccn2c(=O)cc(COc3cccc(NC(=O)COc4ccc(F)cc4)c3)nc12 the survival was inactive: 120%.
O=C(CN1CCCN(Cc2ccccc2Cl)S1(=O)=O)NCc1ccccc1 was tested, and the survival was inactive: 78%.
Cc1ccc2[nH]c(=O)c(CN(CC3CCCO3)C(=S)NCCCN3CCOCC3)cc2c1 (centres undefined) was tested, and the survival was inactive: 111%.
For CC(C)N(Cc1ccccc1)C(=O)Cn1ncc2c([nH]c3ccccc32)c1=O, the survival was inactive: 79%.
In the case of CCc1nnc(NC(=O)C(=O)c2cc(C)n(-c3ccccc3)c2C)s1, the survival is reported as inactive: 89%.
With O=C(N1CCOCC1)N1CCOCC1 the survival was inactive: 101%.
For Cc1cc(C)cc(NC(=O)C2CCCN(C(=O)c3cnn(-c4ccccc4)c3-n3cccc3)C2)c1 (centres undefined), the survival was inactive: 73%.
For O=C(CSc1nc2c([nH]c3ccccc32)c(=O)n1-c1ccc(Cl)cc1)N1CCOCC1, the survival was inactive: 128%.
With CCC1CCCCN1CC(=O)Nc1cc(C)c2c(=O)oc3ccccc3c2n1 (centres undefined) the survival was inactive: 83%.
For O=C(c1ccccc1/S(=N/S(=O)(=O)c1ccccc1)N1CCOCC1)N1CCOCC1 (centres undefined), the survival was inactive: 106%.
CCN(C(=O)c1cccs1)c1nnc(-c2cccc(C)c2)s1 was tested, and the survival was inactive: 115%.
For O=S(=O)(NCC(c1ccco1)N1CCOCC1)c1cc(F)ccc1F (centres undefined), the survival was inactive: 81%.
In the case of Cc1cccc(NC(=O)CSc2c(C)cnc3c2c(=O)n(C)c(=O)n3C)c1C, the survival is reported as inactive: 56%.
Cc1ccc(-c2nonc2NC(=O)c2ccc(F)cc2)cc1C was tested, and the survival was inactive: 85%.
For Cc1ccc(NC(=O)N2CCC(c3ccccc3)C2)cc1C (centres undefined), the survival was inactive: 74%.
For O=C(CCc1ccccc1)N(Cc1cccnc1)c1nc2c(F)cccc2s1, the survival was inactive: 55%.
For COc1cc(C(=O)NCC(c2ccco2)S(=O)(=O)c2ccccc2)cc(OC)c1OC (centres undefined), the survival was inactive: 75%.
For CCc1nn(C(CC)C(=O)NCc2ccc(F)cc2)c(=O)c2cc3occc3n12 (centres undefined), the survival was inactive: 84%.
CC1=C(C(=O)Nc2ccccc2)C(CC(C)C)n2nc(SCc3ccccc3C)nc2N1 (centres undefined) was tested, and the survival was inactive: 81%.
With O=C(c1cc2c(s1)-c1ccccc1OC2)N1CCN(c2ccccc2)CC1 the survival was inactive: 72%.
With CCCOc1ccc(C(=O)N(Cc2ccc(N(C)C)cc2)CC2CCCO2)cc1 (centres undefined) the survival was inactive: 83%.
CCCN(CCC)CCCNC(=O)Cn1ncc2c3ccccc3n(Cc3ccccc3)c2c1=O was tested, and the survival was inactive: 93%.
Cc1ccc(NC(=O)Cc2csc(C)n2)c(C)c1 was tested, and the survival was inactive: 82%.
With Cc1ccc(C(=O)Nc2ccc(OCc3cc(=O)n4c(C)csc4n3)cc2)cc1 the survival was inactive: 93%.
For Cc1nc(-c2ccc(Cl)cc2)sc1CCNC(=O)c1cccs1, the survival was inactive: 119%.
Cc1cccc(NC(=O)CSc2nncn2C)c1 was tested, and the survival was inactive: 83%.
Cc1ccc(Nc2c(-c3ccc(O)cc3)nc3cccc(C)n23)cc1 was tested, and the survival was inactive: 91%.
CCCOc1ccc(-c2nc(SC)[nH]c(=O)c2C#N)cc1OC was tested, and the survival was inactive: 90%.
CCN(CC)CCN(C(=O)c1ccco1)c1nc2ccc(Br)cc2s1 was tested, and the survival was inactive: 67%.
CC(=O)Nc1nonc1-c1nnc(SCC(=O)Nc2cc(C)cc(C)c2)n1-c1ccccc1 was tested, and the survival was inactive: 69%.
Cc1ccc(S(=O)(=O)c2c(Nc3cc(F)ccc3F)sc(C(=O)c3ccc(F)cc3)c2N)cc1 was tested, and the survival was inactive: 82%.
For O=C(c1ccc2c(c1)N(Cc1ccccc1)C(=O)c1ccccc1S2(=O)=O)N1CCCCCC1, the survival was inactive: 82%.
CCc1ccc(NC(=O)CC2C(=O)N(c3ccc(C)cc3)C(=O)N2C2CCCC2)cc1 (centres undefined) was tested, and the survival was inactive: 83%.
With CC(C)(C)c1ccc(Oc2nc3ccccn3c(=O)c2/C=C(\C#N)c2nc3ccccc3s2)cc1 the survival was inactive: 78%.
For COc1cc(NC(=O)Cn2ccn(-c3cc(C)cc(C)c3)c(=O)c2=O)cc(OC)c1, the survival was inactive: 84%.
For Cc1cc(C)cc(NC(=O)CSc2nc(=O)[nH]c3c2CCC3)c1, the survival was inactive: 121%.
For CC(C)CN(CCNC(=O)c1cn(C)c2ccc(S(=O)(=O)N3CCCCCC3)cc2c1=O)CC(C)C, the survival was inactive: 90%.
For CN(C)c1oc(-c2ccc(COc3ccccc3)o2)nc1C#N, the survival was inactive: 71%.
COc1ccc(N2CCN(S(=O)(=O)CCNC(=O)c3cc(=O)c4ccccc4o3)CC2)cc1 was tested, and the survival was inactive: 78%.
Oc1ccc(-c2nnc(SCC3CCCCC3)o2)cc1 was tested, and the survival was inactive: 99%.
For Cc1cc(C)cc(NC(=O)CSc2nc3ncccc3[nH]2)c1, the survival was inactive: 88%.
Cc1ccc(NC(=O)C(=O)NCC(c2ccc3c(c2)OCO3)N2CCN(C)CC2)c(C)c1 (centres undefined) was tested, and the survival was inactive: 77%.
With Cc1ccc(NC(=O)C(Cc2ccccc2)NS(=O)(=O)c2ccc3c(c2)CCC(=O)N3)cc1 (centres undefined) the survival was inactive: 131%.
With CS(=O)(=O)c1cccc(-c2nnc(NC(=O)c3ccc4c(c3)OCCO4)o2)c1 the survival was inactive: 67%.
With CCOC(=O)N1CCC(NC(=O)c2cnn(-c3ccc(C)cc3C)c2C2CCN(C(=O)OC(C)(C)C)CC2)CC1 the survival was inactive: 130%.
For CC(=O)Nc1cccc(Nc2nc3ccccc3n3c(C)nnc23)c1, the survival was inactive: 97%.
O=C(CN1CCCN(Cc2ccc(F)cc2)S1(=O)=O)Nc1ccc2c(c1)OCCO2 was tested, and the survival was inactive: 121%.
In the case of COc1ccc(N2CCN(C(=O)c3cccs3)CC2)cc1, the survival is reported as inactive: 85%.
For CCOc1ccccc1N(C)C(=O)Cn1nc(Cc2ccncc2)c2ccccc2c1=O, the survival was inactive: 91%.
CCCN(CCC)CCCNC(=O)Cn1ncc2c3ccccc3n(Cc3ccccc3F)c2c1=O was tested, and the survival was inactive: 135%.
For CC(=O)c1nn(-c2ccc(OC(F)(F)F)cc2)nc1Nc1ccccc1, the survival was inactive: 88%.
For CCc1nn(CCCC(=O)NCc2ccc(C)cc2)c(=O)c2cc3occc3n12, the survival was inactive: 93%.
